Experimental data reported in the supplement of paper PMC8183993.
Counter-ions that a name gives are not always drawn. ± gives the standard deviation of the averaged measurements. Over roughly 3,100 compounds, “mean cytoplasmic OPP incorporation (global translation) relative to DMSO” has its median near 100; the lowest 2% begin near 56. This is one part of the list.

test system: U2OS; experiment: mean cytoplasmic OPP incorporation (global translation) relative to DMSO (% of DMSO); higher = more protein synthesis; settings: 10 µM; 24 h
Procedure: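 Primary image-based screen in U2OS cells: compounds at 10 uM for 24 h, then a 1 h o-propargyl-puromycin (OPP) pulse, click labelling, and high-throughput microscopy. Mean cytoplasmic OPP intensity and nuclei count were normalised to DMSO wells within each plate (DMSO = 100) and averaged over triplicate plates.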

Row | SMILES | mean cytoplasmic OPP incorporation
1 | CC(C)N(CCC(C(N)=O)(c1ccccc1)c1ccccn1)C(C)C (centres undefined) [Disopyramide] | 108
2 | N=C(N)NN [Aminoguanidine hydrochloride] | 106
3 | C[C@H](N)[C@H](O)c1ccc(O)c(O)c1 [Levonordefrin] | 105
4 | CN1[C@@H]2CC[C@H]1C[C@@H](OC(=O)[C@H](CO)c1ccccc1)C2 [Hyoscyamine (L)] | 95.4
5 | CN1[C@@H]2CC[C@H]1C[C@@H](OC(=O)[C@H](CO)c1ccccc1)C2 [Hyoscyamine (Daturine)] | 101
6 | CN(C)CCN(C)CCc1ccc(Cl)c(Cl)c1 [BD 1047 dihydrobromide] | 105
7 | O=C(O)Cc1cccnc1C(=O)O [Homoquinolinic acid] | 104
8 | CN[C@@H]1C[C@@H](c2ccc(Cl)c(Cl)c2)c2ccccc21 [Indatraline hydrochloride] | 104 ± 5.4
9 | O=[N+]([O-])c1cc(O)c(O)c([N+](=O)[O-])c1 | 109
10 | C[C@H]([C@H](O)CCC(C)(C)O)[C@H]1CC[C@@]2(O)C3=CC(=O)[C@@H]4C[C@@H](O)[C@@H](O)C[C@]4(C)[C@H]3CC[C@]12C [Ecdysone] | 109
11 | C[C@H](N)Cc1cnc[nH]1 [(S)-(+)-a-Methylhistamine dihydrobromide] | 104
12 | c1ccc(CCCCN2CCC(c3ccccc3)CC2)cc1 [4-PPBP maleate] | 102
13 | C=C(C)[C@H]1CN[C@H](C(=O)O)[C@H]1CC(=O)O [Kainic acid] | 99.4
14 | COc1ccc(CN2CCNCC2)c(OC)c1OC [Trimetazidine dihydrochloride] | 105
15 | COc1ccc2c(c1)c(CCN1CCOCC1)c(C)n2C(=O)c1cccc(Cl)c1Cl | 89.9
16 | c1cc2c(cc1[C@H]1OC[C@H]3[C@@H]1CO[C@@H]3c1ccc3c(c1)OCO3)OCO2 [Sesamin (Fagarol)] | 89.1
17 | CC(C)C(C(=O)OC(C#N)c1cccc(Oc2ccccc2)c1)c1ccc(Cl)cc1 (centres undefined) [Fenvalerate] | 109
18 | O=C(N[C@H]1CN2CCC1CC2)c1ccc(Cl)cc1 | 99.7
19 | CN1Cc2ccccc2[C@@H]2c3cccc4[nH]cc(c34)C[C@H]21 | 83.9
20 | N#Cc1ccc(N2CCN(C(=O)COc3ccc4[nH]cc(CCN)c4c3)CC2)cc1 [Donitriptan hydrochloride] | 98.2
21 | C[C@]12CC[C@H]3[C@@H](CCC4=CC(=O)CC[C@@H]43)[C@@H]1CC[C@@H]2O [Nandrolone] | 98.1
22 | O=c1c2ccccc2[se]n1-c1ccccc1 [Ebselen] | 105 ± 2.2
23 | CCCN(CCC)C1Cc2cc(OC)c(OC)cc2C1 | 100

Row | SMILES | mean cytoplasmic OPP incorporation
24 | O=c1ccc2cc(O[C@@H]3O[C@H](CO)[C@@H](O)[C@H](O)[C@H]3O)c(O)cc2o1 [Aesculin (Esculin)] | 103
25 | CN1CCCCC1Cn1cc(C(=O)c2cc([N+](=O)[O-])ccc2I)c2ccccc21 (centres undefined) | 112
26 | NCC(O)c1ccc(O)cc1 (centres undefined) [Octopamine hydrochloride] | 98
27 | O=C1Nc2ccccc2C2(CCN(CCc3ccc(C(F)(F)F)cc3)CC2)O1 | 105
28 | CC(N)Cc1cnc[nH]1 (centres undefined) | 101
29 | O=C(NCC1CCOCC1)c1cnc(Nc2ccc(Cl)cc2Cl)nc1C(F)(F)F | 102
30 | COC(=O)[C@@H](N)CCCNC(=N)N[N+](=O)[O-] [L-NAME hydrochloride] | 100
31 | COC(=O)[C@@H](N)CCCNC(=N)N[N+](=O)[O-] | 104
32 | CC(=O)O[C@H]1C[C@@H]2CC[C@@H]3[C@H](CC[C@@]4(C)[C@H]3C[C@H]([N+]3(C)CCCCC3)[C@@H]4OC(C)=O)[C@@]2(C)C[C@@H]1[N+]1(C)CCCCC1 [Pancuronium (Pavulon)] | 98
33 | CC(=O)O[C@H]1C[C@@H]2CC[C@@H]3[C@H](CC[C@@]4(C)[C@H]3C[C@H]([N+]3(C)CCCCC3)[C@@H]4OC(C)=O)[C@@]2(C)C[C@@H]1[N+]1(C)CCCCC1 [Pancuronium bromide] | 97.7
34 | O=C1C=CC[C@@H]2[C@H]3CCCN4CCC[C@@H](CN12)[C@@H]34 [Sophocarpine] | 98.2
35 | S=C=Nc1cccc(C2(N3CCCCC3)CCCCC2)c1 [Metaphit] | 102
36 | CCCC(C)C1(CC)C(=O)NC(=O)NC1=O (centres undefined) [Pentobarbital] | 103
37 | C[C@]12C[C@H]3S[C@H]3C[C@@H]1CC[C@@H]1[C@@H]2CC[C@]2(C)[C@@H](O)CC[C@@H]12 [Epitiostanol] | 87.1
38 | COP(=O)(OC)C(O)C(Cl)(Cl)Cl (centres undefined) [Trichlorfon] | 98.2
39 | CNC1CC(N)C(O)C(OC2OC(CO)C(O)C3OC4(OC(C(N)CO)C(O)C(O)C4O)OC23)C1O (centres undefined) [Hygromycin B] | 102
40 | Cc1ccc2cc3c(ccc4ccccc43)c3c2c1CC3 [3-Methylcholanthrene] | 114
41 | C[C@H](CCC(=O)O)C[C@H](C)C[C@H](C)C(=O)/C=C(\O)[C@H](C)C[C@H](C)C/C=C/[C@@H](C)[C@@H](O)[C@@H](C)[C@@H](O)C[C@@H]1CC[C@@](C)([C@H]2CC[C@@](C)([C@@H](C)O)O2)O1 [Ionomycin] | 83.6
42 | C=CCN1CC[C@]23c4c5ccc(O)c4O[C@H]2C(=O)CC[C@@]3(O)[C@H]1C5 [Naloxone hydrochloride] | 93.4 ± 4.1
43 | C[C@@H]1CC[C@@]2(OC1)O[C@H]1C[C@H]3[C@@H]4CC=C5C[C@@H](O[C@@H]6O[C@H](CO)[C@@H](O[C@@H]7O[C@@H](C)[C@H](O)[C@@H](O)[C@H]7O)[C@H](O)[C@H]6O[C@@H]6O[C@@H](C)[C@H](O)[C@@H](O)[C@H]6O)CC[C@]5(C)[C@H]4CC[C@]3(C)[C@H]1[C@@H]2C [Dioscin (Collettiside III)] | 50.2
44 | Cn1cc(C2=C(c3cn(C4CCN(Cc5ccccn5)CC4)c4ccccc34)C(=O)NC2=O)c2ccccc21 | 108
45 | C[C@]12CCC(=O)C=C1C=C[C@@H]1[C@@H]2CC[C@@]2(C)[C@H]1CC[C@@]2(O)CCC(=O)O [Canrenoic acid potassium salt] | 104
46 | CC[C@@H](C(=O)[C@@H](C)[C@@H](O)[C@H](C)[C@@H]1O[C@@H]([C@@H](CC)C(=O)O)CC[C@@H]1C)[C@H]1O[C@]2(C=C[C@@H](O)[C@]3(CC[C@@](C)([C@H]4CC[C@](O)(CC)[C@H](C)O4)O3)O2)[C@H](C)C[C@@H]1C [Salinomycin (Procoxacin)] | 127

Row | SMILES | mean cytoplasmic OPP incorporation
47 | C(#CCN1CCCC1)CN1CCCC1 [Tremorine dihydrochloride] | 99.6
48 | OC(Cc1ccncc1)C(Cl)(Cl)Cl (centres undefined) | 104
49 | CS(=O)(=O)Nc1ccc(Cc2noc(-c3ccc4[nH]cc(CCN)c4c3)n2)cc1 | 108
50 | Cc1cccc(C)c1NC(=O)CN1CCCC1=O [Nefiracetam (Translon)] | 99.9
51 | Cc1cccc(Cc2c[nH]cn2)c1C [Detomidine HCl] | 98.8
52 | N#CC(C#N)=Cc1ccc(O)c(O)c1 [AG 18 (Tyrphostin 23)] | 99.4
53 | CCCC[N+]1(C)[C@@H]2C[C@@H](OC(=O)[C@H](CO)c3ccccc3)C[C@H]1[C@@H]1O[C@@H]12 (some centres undefined) [Butylscopolamine bromide (Scopolamine butylbromide)] | 107
54 | C/C(=C\c1csc(C)n1)[C@@H]1C[C@@H]2O[C@@H]2CCC[C@H](C)[C@H](O)[C@@H](C)C(=O)C(C)(C)[C@@H](O)CC(=O)O1 [Epothilone A] | 90.8
55 | COc1ccc(N(C(=O)Oc2c(C)cccc2C)c2ccnc(Nc3ccc(N4CCN(C)CC4)cc3)n2)c(OC)c1 | 114
56 | CN(C)CCc1ccc(O)cc1 [Hordenine] | 102
57 | CC(=O)[C@H]1CC[C@H]2[C@@H]3CC[C@H]4C[C@](C)(O)CC[C@]4(C)[C@H]3CC[C@]12C [Ganaxolone] | 100
58 | C#C[C@]1(O)CC[C@H]2[C@@H]3CCC4=CC(=O)CCC4=C3C=C[C@@]21CC [Gestrinone] | 112
59 | O=C(O)C1=CCCN(CCOC(c2ccc(C(F)(F)F)cc2)c2ccc(C(F)(F)F)cc2)C1 [CI 966 hydrochloride] | 97.6
60 | CN1[C@@H]2C[C@@H](OC(=O)[C@H](CO)c3ccccc3)C[C@H]1[C@@H]1O[C@@H]12 [Scopolamine hydrochloride] | 98.7
61 | CN1[C@@H]2C[C@@H](OC(=O)[C@H](CO)c3ccccc3)C[C@H]1[C@@H]1O[C@@H]12 [Scopolamine hydrobromide] | 102
62 | CN1[C@@H]2C[C@@H](OC(=O)[C@H](CO)c3ccccc3)C[C@H]1[C@@H]1O[C@@H]12 [Scopolamine HBr] | 111
63 | CC(C)(O)[C@H]1O[C@H]2CC[C@@]3(C)[C@@](O)(CC[C@H]4Cc5c([nH]c6ccccc56)[C@@]43C)C2=CC1=O [Paxilline] | 96.4 ± 5.5
64 | NCC(CC(=O)O)c1ccc(Cl)cc1 (racemic) [Baclofen (R,S)] | 105
65 | N[C@@H]1C[C@H]1c1ccccc1 [Tranylcypromine hydrochloride] | 95.08 ± 0.83
66 | O[C@H]1[C@H](O)[C@@H](O)CN2CC[C@H](O)[C@H]12 [Castanospermine] | 99.1
67 | CO[C@H]1CC[C@@H](O[C@H]2C[C@H]([C@]3(C)CC[C@]4(C[C@H](O)[C@@H](C)[C@@H]([C@@H](C)/C=C(\C)C(=O)[C@H](C)C[C@H](C)C(=O)O)O4)O3)O[C@]3(O[C@@H]([C@H]4O[C@@](O)(CO)[C@H](C)C[C@@H]4C)C[C@@H]3C)[C@@H]2C)O[C@@H]1C [Nanchangmycin] | 114
68 | O=C(O)[C@@H]1[C@H](C(=O)O)[C@H]2CC[C@@H]1O2 [Endothall] | 103
69 | O=C1CC[C@@]2(O)[C@H]3Cc4ccc(O)c5c4[C@@]2(CCN3CC2CC2)[C@H]1O5 [Naltrexone hydrochloride dihydrate] | 108
